Results on 143 sequences are retold here after the supplement of paper PMC3724861.

This is one part of the list. Bounds are passed on as bounds.

The test system of this assay is T1, Caupolican (Caup) homeodomain DNA-binding domain.
T1 sequence: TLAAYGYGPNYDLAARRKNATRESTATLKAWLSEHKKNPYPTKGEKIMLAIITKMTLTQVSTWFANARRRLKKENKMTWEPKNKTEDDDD
Kind of assay: PBM E-score (8-mer, recovered from the published 9-mer minima) (E-score (dimensionless, -0.5 to 0.5)); Drosophila protein; higher = stronger relative binding preference, active = 0.31 or more. The method, boiled down:
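An enrichment score, with higher meaning stronger, expresses relative binding preference for each short DNA word. The protein used was Caup's homeodomain DNA-binding domain (residues 214-303), produced by in vitro transcription and translation and tested at 100 nM on custom-designed protein binding microarrays. The 8-mer values were recovered from published 9-mer scores, each equal to the lower of its two constituent 8-mer scores.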
On to CTGTTCTA, for which the “PBM E-score” value is inactive: 0.127.
The same measure for CATGATAA: inactive: 0.219.
Consider CGGCTCAG, for which the “PBM E-score” value was inactive: -0.196.
To TGTAGACA belongs active: ≥ 0.313; to ACGCATAT, inactive: 0.103; to CAATTATG, inactive: 0.161.
To ACTGGCAT belongs inactive: -0.0433.
The same measure for CGGGGCCA: inactive: -0.224; for CACACCTA: inactive: 0.0328.
With AATCCCAA, the “PBM E-score” value is inactive: -0.0093.
The same measure for ATCAAACA: inactive: 0.282.
To ATATTGAT belongs no less than 0.165.
In the case of CCTCGTTC, the “PBM E-score” value is inactive: -0.0243.
To TATTACGA belongs inactive: 0.162; to TTTCGAAA, inactive: -0.0687.
For the sequence AGCCGATG, the “PBM E-score” value was inactive: -0.0816.
To AAATTAAC belongs inactive: 0.125; to ACGGAGAT, inactive: -0.035; to ATTAGACA, inactive: 0.258.
Consider GGGACCAC, for which the “PBM E-score” value is inactive: -0.0946.
On to AGGTACTG, for which the “PBM E-score” value is inactive: 0.0558.
Take ACTTAATG: the “PBM E-score” value was inactive: 0.133.
The same measure for AACTATTA: inactive: 0.178; for CCAACGAG: inactive: 0.00173.
The same measure for CTGGTCCC: inactive: -0.148; for ATATGCAA: inactive: 0.123; for GTCGCTAA: inactive: 0.00491.
The same measure for ATATTATG: inactive: 0.258; for CATCCTCG: inactive: 0.0101.
CTATTGAG: the “PBM E-score” value was inactive: 0.0929.
Consider GATTAATC, for which the “PBM E-score” value was inactive: 0.0711.
To AGCGTTCC belongs inactive: -0.0507; to ATTTGGTA, no less than 0.155; to CGATTAAA, inactive: 0.0466.
With GATCTGAC, the “PBM E-score” value was inactive: 0.0711.
The same measure for CTACTCTA: inactive: 0.0158; for CGGGTAAA: no less than 0.075.
The same measure for AGCGCGGC: inactive: -0.184; for CCCGGGTC: inactive: -0.214; for ACCGAGGG: inactive: -0.263.
To CCTCACCA belongs inactive: -0.128; to AAGAAATG, inactive: 0.0551.
As for AGGGCTCG, the “PBM E-score” value was inactive: -0.241.
With ATTTTTGA, the “PBM E-score” value is inactive: 0.0958.
As to AAGTGGTA, the “PBM E-score” value is inactive: 0.162.
TATTAATA: the “PBM E-score” value is inactive: 0.178.
The same measure for CCATCGAG: inactive: -0.0133; for CCGCTCAG: inactive: -0.148; for CCAACTAC: inactive: 0.0722.
To CTTCGCGC belongs inactive: -0.0901; to CAACACGG, inactive: 0.2; to ACGGACAC, inactive: 0.2.
As to CTCCTCGA, the “PBM E-score” value is inactive: -0.0997.
To CAGCCTAA belongs inactive: -0.0449; to AAGGGACT, inactive: -0.042.
In the case of GACACAGA, the “PBM E-score” value is inactive: 0.155.
To AAGATTCA belongs inactive: 0.0215; to AAGACTAT, inactive: 0.0648; to AATGGTTA, inactive: 0.0863.
For CCACGCCG, the “PBM E-score” value was inactive: -0.159.
To AGATAATC belongs inactive: 0.00296; to GATCCAGA, inactive: 0.00644.
For CAGCGATA, the “PBM E-score” value was inactive: -0.0916.
To AAGGCAGA belongs inactive: -0.0313; to CTCTGGTC, inactive: -0.112.
To GTCTCCAC belongs inactive: -0.192; to CCCTATAA, inactive: -0.0217; to ACGTACTC, inactive: 0.0449.
For CGATCCTC, the “PBM E-score” value was inactive: 0.00131.
In the case of TCCATAAA, the “PBM E-score” value is inactive: 0.0501.
To CGTGTGAA belongs inactive: 0.102.
To GCGATCTA belongs inactive: 0.00363.
The same measure for CCAAGGAG: inactive: -0.16; for CAGGTTCA: inactive: 0.0663; for CTGGACTA: inactive: -0.0281.
AGCCATAT: the “PBM E-score” value was inactive: 0.0268.
To ATCGTGCA belongs inactive: 0.127; to ATCGAGAC, inactive: 0.0539.
The same measure for AATCTACC: inactive: 0.0581; for GTCTGTTA: inactive: 0.161; for GTTCATAA: inactive: 0.11.
To GACACCTA belongs inactive: 0.147; to CTATGAAA, inactive: 0.0131; to ATATAACA, active: 0.372.
Turning to CCATATAC, the “PBM E-score” value was inactive: 0.171.
The same measure for CAGCAGTC: inactive: -0.112; for AGGGCGGC: inactive: -0.277; for ACACTTCT: inactive: 0.138.
To ATTGATAG belongs inactive: 0.0965.
For AACCTTAC, the “PBM E-score” value was inactive: 0.00708.
On to CTGTGGTA, for which the “PBM E-score” value was inactive: 0.0585.
Turning to GCCAGAAA, the “PBM E-score” value was inactive: -0.0768.
The same measure for ACTGTCCG: inactive: 0.0148; for TACAACAA: active: 0.387.
The same measure for TGCGTACA: inactive: 0.241; for CGCTGAGA: inactive: -0.154; for GCATCCAC: inactive: -0.0644.
The same measure for GGTTTAAC: inactive: 0.0521.
ACTTTGGA: the “PBM E-score” value was inactive: 0.0867.
To CTGGGAAC belongs inactive: 0.0198.
As to AGTATACA, the “PBM E-score” value was inactive: 0.309.
The same measure for ACTGTTTG: inactive: 0.184; for GACTTAAA: inactive: 0.0556.
To ACTCTCTC belongs inactive: -0.0355.
The same measure for ATGCGTTG: inactive: 0.0845.
Regarding AATTGTAC, the “PBM E-score” value was inactive: 0.258.
The same measure for ACGGCCCG: inactive: -0.136; for CAGAGCAG: inactive: -0.0123.
For the sequence ACAAGAAT, the “PBM E-score” value was inactive: 0.307.
The same measure for CTTAAGCC: inactive: -0.197.
To CCCAACGC belongs inactive: -0.102; to ACTTCACA, inactive: 0.0893; to CAACATAC, inactive: 0.302.
The same measure for GAGTGCGA: inactive: -0.149; for GTCCCCCA: inactive: -0.271; for CCTAAGAA: inactive: 0.0139.
In the case of ATATTCAA, the “PBM E-score” value was inactive: 0.119.
On to GGACAAGA, for which the “PBM E-score” value was inactive: 0.264.
To ACCGGATC belongs inactive: 0.0436.
To CCACGTAA belongs inactive: -0.0791; to GCAATGCC, inactive: -0.134.
In the case of GATAGTCC, the “PBM E-score” value is inactive: 0.0462.
To AATTAGAT belongs inactive: 0.154.
Turning to GCATCGCA, the “PBM E-score” value is inactive: -0.205.
To GCCGAAAC belongs inactive: -0.0529.
As to AACGATAC, the “PBM E-score” value was inactive: 0.213.
To CTTAGTCA belongs inactive: 0.0123.
As to AAGCTACG, the “PBM E-score” value is inactive: -0.0509.
To GTATTGGA belongs inactive: 0.0937; to AAGGTTGG, inactive: 0.0578; to GATTGAGA, no less than 0.0804.
The same measure for CCACTCCG: inactive: -0.188; for AACTTTAT: inactive: 0.0728.
To AGACAAAG belongs inactive: 0.0575.
As for CAGTAATC, the “PBM E-score” value is inactive: 0.0654.
To ACGATCCA belongs inactive: 0.0604; to TAATAACA, active: 0.319.
Take GCCATGTA: the “PBM E-score” value is active: 0.346.
To ATAGATCC belongs inactive: 0.0212; to AGACGAGA, inactive: 0.0336; to CCTCTAAC, inactive: 0.0582.
To GGCTAAAA belongs inactive: -0.0887.
To ACTGACAT belongs inactive: 0.302.
